Laboratory results published in PubChem BioAssay AID2147 (National Center for Advancing Translational Sciences (NCATS), 2009).
The whole screen tested about 230,000 compounds, of which about 3,600 (1.6%) were called active. The inconclusive results got no clear call from the source; some entries with a clear call stand among them for comparison. Calls follow the shape of the dose curve; as a rule, active = well fitted inhibition curve with a large enough effect (not every such curve was filed as active); inconclusive = small, poorly fitted or top-dose-only effect, or another doubt; inactive = no such curve, though single readings can be large or run the other way. A potency beside an inconclusive call is a rough fit, not a confirmed value.

What follows are compounds tested against Lysine-specific demethylase 4E (Homo sapiens) (UniProt B2RXH2) (assay: qHTS Assay for Inhibitors of Human Jumonji Domain Containing 2E (JMJD2E)). Conditions: JMJD2E catalytic domain, FDH-coupled NADH fluorescence (FDH is formaldehyde dehydrogenase); series mostly up to 57.1 µM.
Chain of UniProt B2RXH2 (B2RXH2 whole entry, looked up, the tested form may be a part): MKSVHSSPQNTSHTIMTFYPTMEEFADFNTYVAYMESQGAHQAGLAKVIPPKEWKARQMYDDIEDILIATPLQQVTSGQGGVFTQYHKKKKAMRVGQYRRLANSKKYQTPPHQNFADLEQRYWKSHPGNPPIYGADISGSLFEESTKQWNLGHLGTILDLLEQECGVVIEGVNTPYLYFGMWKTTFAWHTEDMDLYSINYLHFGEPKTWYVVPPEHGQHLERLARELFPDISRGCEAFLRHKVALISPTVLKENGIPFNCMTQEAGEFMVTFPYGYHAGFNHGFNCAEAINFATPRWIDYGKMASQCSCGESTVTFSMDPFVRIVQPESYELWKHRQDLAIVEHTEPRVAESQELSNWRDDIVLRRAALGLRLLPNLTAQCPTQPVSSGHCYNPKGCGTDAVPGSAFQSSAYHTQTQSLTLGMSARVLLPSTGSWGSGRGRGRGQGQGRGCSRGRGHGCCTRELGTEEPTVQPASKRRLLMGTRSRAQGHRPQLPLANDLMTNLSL
Also: nearly all actives have a fitted effect of over 50% in size.
Potency is read from the fitted curve at half-maximal effect; tags tell the direction and shape of the fitted curve.

| SMILES | Potency |
| --- | --- |
| C=CCn1c(COc2ccc(CC)cc2)nnc1SC/C(O)=C(\C#N)c1nc2ccccc2[nH]1 | inconclusive: 39.8 µM [inhibitor, single point] |
| COC(=O)c1cn(NC(=O)c2cnccn2)c(=O)c2ccccc12 | inconclusive: 31.6 µM [inhibitor, single point] |
| COc1ccc(NC(=O)CSc2nnc(Cc3cccn3C)n2CCc2ccccc2)cc1OC | inconclusive: 28.2 µM [inhibitor, partial curve] |
| O=C(c1coc(=O)c(Br)c1)N1CCCc2ccccc21 | inconclusive: 3.16 µM [inhibitor, full curve] |
| O=C(Nc1ccc2ccccc2c1)c1ccc(Cl)cc1Cl | inconclusive: 28.2 µM [inhibitor, single point] |
| CC(=O)N(CCC(Cc1ccccc1)c1ccc2c(c1)OCO2)Cc1ccccc1F (stereo unspecified) | inactive |
| CC(C)C(NC(=O)CN(c1cccc(F)c1)S(C)(=O)=O)C(C)C | inactive |
| c1ccc(CCC2CCCCN2Cc2cn[nH]c2-c2cc3ccccc3o2)nc1 (stereo unspecified) | inactive |
| Cc1ccc(-c2nc3c(c(=O)[nH]c(=O)n3Cc3ccccc3)n2Cc2ccccc2)o1 | inactive |
| CCOc1ccccc1-n1c(SCC(=O)Nc2ccc(CC)cc2)nc2n[nH]c(C)c2c1=N | inconclusive: 12.6 µM [inhibitor, partial curve] |
| Cc1nc(NC(=O)c2ccco2)sc1C(=O)Nc1ccc(Br)cc1 | inconclusive: 39.8 µM [inhibitor, single point] |
| O=C(O)CSc1nnc(SCc2cccc3ccccc23)s1 | inactive |
| CCCn1c(SCC(=O)NCc2ccc(C)cc2)n[nH]c1=O | inactive |
| Cc1cc(C)cc(C(=O)Nc2ccc(N3CCN(S(C)(=O)=O)CC3)cc2)c1 | inconclusive: 39.8 µM [inhibitor, single point] |
| Cc1oc(-c2ccc(F)cc2)cc1-c1nn2c(-c3ccoc3C)nnc2s1 | inactive |
| O=C(CSc1nnc(SCc2cccc3ccccc23)s1)Nc1ccc(C(=O)O)cc1 | inactive |
| CC(C)c1nc(-c2ccc([N+](=O)[O-])cc2)cs1 | inactive |
| O=C(Nc1cccc(C(F)(F)F)c1)C1C2CC3OC(=O)C1C3C2 (stereo unspecified) | inconclusive: 35.5 µM [inhibitor, single point] |
| O[C@@H](CNC[C@H](O)c1ccccc1)c1ccccc1 | inconclusive: 39.8 µM [inhibitor, single point] |
| CCn1c(SCC(=O)c2ccc(O)c(O)c2)nnc1-c1ccc(C)cc1 | active: 25.1 µM |
| COC(CN1C(=O)C(O)=C(C(C)=O)C1c1ccccn1)OC (stereo unspecified) | inconclusive: 39.8 µM [inhibitor, single point] |
